# The full ranking holds about 33,000 sequences; the median of “E-score (-0.5 to 0.5)” is about -0.021, and the highest 2% start at about 0.32. The list shows a part of the results.
# Target: T1, Zap1 (UniProt P47043)
# T1 sequence: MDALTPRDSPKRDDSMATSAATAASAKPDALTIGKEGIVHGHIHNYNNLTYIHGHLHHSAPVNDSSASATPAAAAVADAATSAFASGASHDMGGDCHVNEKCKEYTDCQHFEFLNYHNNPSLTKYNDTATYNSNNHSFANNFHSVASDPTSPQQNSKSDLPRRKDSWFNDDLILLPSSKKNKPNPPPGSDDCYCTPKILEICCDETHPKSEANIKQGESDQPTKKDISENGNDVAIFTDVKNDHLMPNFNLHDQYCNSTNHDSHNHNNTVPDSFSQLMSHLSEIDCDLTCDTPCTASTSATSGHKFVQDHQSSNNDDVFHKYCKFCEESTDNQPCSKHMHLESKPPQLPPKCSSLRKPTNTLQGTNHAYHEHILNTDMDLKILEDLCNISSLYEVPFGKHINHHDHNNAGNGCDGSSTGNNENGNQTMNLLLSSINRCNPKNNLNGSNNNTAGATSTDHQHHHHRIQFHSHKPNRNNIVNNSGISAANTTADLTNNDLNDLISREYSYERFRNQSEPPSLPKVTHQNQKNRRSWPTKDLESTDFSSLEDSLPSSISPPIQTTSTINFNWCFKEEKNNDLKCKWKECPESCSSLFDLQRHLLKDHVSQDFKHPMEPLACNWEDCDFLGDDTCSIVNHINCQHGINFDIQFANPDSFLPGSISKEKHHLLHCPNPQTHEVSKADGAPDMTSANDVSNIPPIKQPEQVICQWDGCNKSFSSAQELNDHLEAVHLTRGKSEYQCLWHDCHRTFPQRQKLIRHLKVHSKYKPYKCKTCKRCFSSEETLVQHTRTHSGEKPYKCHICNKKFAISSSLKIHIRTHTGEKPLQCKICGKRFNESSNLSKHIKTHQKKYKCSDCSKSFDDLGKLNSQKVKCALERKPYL
# Assay: PBM E-score (8-mer binding enrichment) (E-score (-0.5 to 0.5)); higher = stronger / more preferred TF binding; most listed sequences are background and not binding sites
# Settings: protein concentration: 200 nM; construct: GST-full length
# In short: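 For each ungapped eight-base word taken together with its reverse complement, the Universal PBM Analysis Suite assigned an E-score. Binding data came from GST-tagged yeast transcription factors, applied at about 100-200 nM, on universal all-10-mer Agilent arrays made double-stranded by primer extension. Fluorescent anti-GST marked bound protein, and scans were normalised with masliner.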
row,Sequence,PBM E-score
1,CAGTATTA,0.153
2,AATTGACC,0.171
3,CTATCCCC,-0.284
4,CGCACTAG,0.0423
5,CGCTCTAG,-0.202
6,AGGTTCCC,0.122
7,CAGGACGA,-0.112
8,AAACTGCA,0.00332
9,AGAGCTAT,-0.113
10,ACCGGAAG,0.0591
11,CCTACTGC,-0.231
12,CATCCCTA,-0.134
13,GTCTACAC,-0.0912
14,AACTAACA,0.153
15,AATATCCG,0.123
16,GTCAGTAA,-0.0455
17,AACCACTC,0.289
18,AGTAACCA,0.387
19,CGAGCGAC,-0.234
20,AAGCATCT,-0.198
21,CCCTATCA,-0.0341
22,ACCTATGA,0.17
23,ACAATTGT,0.0739
24,CGCGTTTC,-0.0748
25,AGCGGTGC,-0.176

row,Sequence,PBM E-score
1,GATATTAC,0.134
2,AATCGTAT,-0.0933
3,AGCGGCAC,-0.168
4,CTAGGCTA,-0.0397
5,CATGCAGA,0.0731
6,AGGTGTAG,-0.129
7,CGAGTAAA,0.0265
8,AAATATTC,0.157
9,GGGTAACC,0.46
10,AAATAGAA,-0.0601
11,GTCTGGGA,0.006
12,CCCTTGGC,0.00076
13,CGATTTAG,0.105
14,GGCACTAC,-0.143
15,AAGTCGGT,-0.219
16,GTTCGTTA,0.109
17,GCGCTAAA,0.0289
18,CGGTTGAG,-0.00869
19,GAGTCGCC,-0.307
20,GGTACTGA,0.163
21,ACTATTCC,0.109
22,ATGTGCGG,-0.0642
23,TGCTGGAA,-0.189
24,GGCCGAGA,0.0129
25,ACGCCAAC,-0.16

row,Sequence,PBM E-score
1,ACCTTGCC,-0.043
2,GTTACTGA,0.171
3,GGCGTTGA,-0.126
4,CAACACAG,-0.0159
5,AGAACACG,0.0336
6,AACGCGTA,-0.165
7,CCAAGTGC,-0.0804
8,GACCCGGA,0.118
9,CATACCCG,0.304
10,GACATGGC,-0.168
11,GGAATCAA,0.103
12,ACACGCCC,-0.209
13,GAGTACAA,0.0653
14,ATAGTGAA,-0.0126
15,CGGACAAC,0.129
16,CCCGAGCA,-0.298
17,CGAACGGA,-0.0657
18,AATAATGT,0.0206
19,CACATGAC,-0.0975
20,AAAAGCTG,-0.218
21,ACAAACAT,0.0357
22,CCAGAGTC,0.0266
23,GTAACGCA,0.0614
24,ACACGGGT,0.14
25,ATTCAGTA,0.0794

row,Sequence,PBM E-score
1,CCAGCTAA,-0.0304
2,ATGTCTTA,-0.00067
3,GTGATGAA,0.0445
4,GACCGGCA,-0.144
5,ACCTACAC,0.0316
6,TCCCAAGA,-0.0673
7,GTAATGCA,-0.157
8,ACCTCTCG,0.166
9,AGGCAGTG,-0.0761
10,ATGTAGCG,-0.153
11,ATAGAGGA,-0.186
12,AGGCCGCC,-0.196
13,ACCGGCCA,0.0682
14,GAGATCCC,-0.147
15,AATGGATC,-0.021
16,ACCTCAGA,0.214
17,GAGATAAA,0.0437
18,TGTGGTAA,0.216
19,AGTCACAT,-0.132
20,ATCCTCGA,0.0274
21,TAATCGGA,-0.00292
22,CTCACAAC,0.181
23,CGTTAAGA,-0.0174
24,CGCGAGAG,0.00964
25,ACGGAAAA,0.0966

row,Sequence,PBM E-score
1,AACCGGAC,0.0813
2,ATGGTCAC,0.312
3,ATCCCAGA,-0.0394
4,TCTATGAA,-0.0101
5,CCAAAACA,0.13
6,CCACAGAG,0.0203
7,ACCTGCCA,0.00285
8,GGCTGCAA,0.0548
9,TGCTTCAA,0.0233
10,ACATTCCA,-0.152
11,AATAGAGT,-0.109
12,CAAGTGAG,-0.196
13,CAATGTAA,0.142
14,TAAAACGA,0.0235
15,ATGTACCC,0.216
16,ACAACCAG,0.23
17,AAAACCGA,0.0886
18,AGCAGGGA,-0.239
19,ATTAATCA,0.218
20,CCTGAAGA,0.0193
21,GAACGACC,0.0425
22,TCATGACA,0.167
23,TCCCGTCA,-0.0275
24,CTCCACAG,-0.268
25,CGCGATGA,0.181

row,Sequence,PBM E-score
1,AATGTCTG,-0.121
2,AATCGAGG,0.117
3,CCTGCGAA,0.0804
4,GCGTCGAA,0.0421
5,CAGCAGAA,-0.0338
6,CCCATCCC,0.0022
7,CTAACTAG,0.0959
8,AAACATCC,0.0186
9,CTACACGA,0.159
10,AACATGAG,-0.0271
11,ATGGCAAA,-0.133
12,AATGTATC,0.107
13,AGAAGAAC,0.0131
14,CGCATGAA,-0.0347
15,CACACACA,0.00095
16,AGGCACAT,-0.132
17,ACTATGAC,0.0225
18,ATTTGTCG,0.101
19,AAATTACG,0.112
20,ACGAACTG,-0.287
21,AGGGATGC,-0.32
22,AAGCCTTG,-0.218
23,ACGTAAGT,-0.213
24,CCTATCCA,-0.293
25,ACCTTGAA,0.337

row,Sequence,PBM E-score
1,GCCTGGCC,-0.299
2,ATACGATA,0.0936
3,CCGGAGCC,-0.166
4,GACTATGC,-0.0408
5,AGGGCTAT,-0.149
6,ACCTAGTC,-0.0824
7,TCACATCA,0.0904
8,CCTCATGA,0.201
9,GACCACCC,0.108
10,TACACGAA,-0.0152
11,ATCCGTTG,-0.0685
12,ATGGATGA,-0.0452
13,CAAGAGGG,-0.0193
14,AACGTATG,-0.0203
15,ACCACCCG,0.184
16,CGGGAGAA,-0.053
17,TACGGGAA,0.159
18,AGGAGTTA,0.169
19,ACTAATCA,0.0612
20,CAATTTCG,0.0129
21,ACGACATC,-0.237
22,CACTACCC,0.367

# Reference: the supplement of paper PMC3334620
